Data: PubChem BioAssay AID588591 (National Center for Advancing Translational Sciences (NCATS), 2011)
Hit rate of the full screen: of about 390,000 compounds, about 4,700 (1.2%) were called active. Inconclusive means that the source gave no clear call. Such entries were picked first, then a sample of the others. Calls follow the shape of the dose curve; as a rule, active = well fitted inhibition curve with a large enough effect; inconclusive = small, poorly fitted or top-dose-only effect, or another doubt; inactive = no such curve, though single readings can be large or run the other way. A potency beside an inconclusive call is a rough fit, not a confirmed value.

The compounds below were run against DNA polymerase eta (Homo sapiens) (UniProt Q9Y253) (assay: qHTS for Inhibitors of Polymerase Eta). Conditions: recombinant Pol eta, fluorescent DNA replication assay; series mostly up to 114 µM.
Outline: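 Pol eta (10 nM) was preincubated with compounds for 15 min at room temperature, after which fluorescent replication substrate (50 nM final) was added to start the reaction. Fluorescence was read kinetically at 0 and 10 min.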
Potency is read from the fitted curve at half-maximal effect; tags tell the direction and shape of the fitted curve.

Chain of UniProt Q9Y253 (Q9Y253 whole entry, looked up): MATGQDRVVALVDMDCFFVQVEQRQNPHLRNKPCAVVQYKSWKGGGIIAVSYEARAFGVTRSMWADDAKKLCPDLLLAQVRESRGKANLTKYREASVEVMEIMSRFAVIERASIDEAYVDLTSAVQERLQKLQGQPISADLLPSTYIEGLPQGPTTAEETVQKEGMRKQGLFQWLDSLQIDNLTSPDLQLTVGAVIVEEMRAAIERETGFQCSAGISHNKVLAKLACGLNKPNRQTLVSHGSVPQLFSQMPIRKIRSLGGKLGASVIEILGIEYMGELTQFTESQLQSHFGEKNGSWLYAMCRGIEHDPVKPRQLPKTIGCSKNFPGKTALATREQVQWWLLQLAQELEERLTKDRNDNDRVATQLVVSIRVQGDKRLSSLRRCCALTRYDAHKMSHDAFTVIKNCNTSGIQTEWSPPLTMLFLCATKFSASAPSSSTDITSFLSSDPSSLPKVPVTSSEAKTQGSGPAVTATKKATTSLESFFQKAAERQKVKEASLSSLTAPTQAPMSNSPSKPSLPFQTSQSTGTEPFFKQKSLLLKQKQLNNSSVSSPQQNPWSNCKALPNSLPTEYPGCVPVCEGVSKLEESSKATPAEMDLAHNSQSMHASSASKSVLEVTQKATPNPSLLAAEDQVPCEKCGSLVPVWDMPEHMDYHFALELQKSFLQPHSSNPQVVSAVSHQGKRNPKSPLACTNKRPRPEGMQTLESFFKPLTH

| Structure (SMILES) | Potency |
| --- | --- |
| COC(=O)c1ccc(CSc2nc3scc(-c4cccs4)c3c(=O)[nH]2)o1 | inconclusive: 56.2 µM [inhibitor, partial curve, poor fit] |
| O=C1NC(=S)N/C1=C/c1cccc([N+](=O)[O-])c1 | inconclusive: 56.2 µM [inhibitor, partial curve, poor fit] |
| Cc1ccccc1NC(=O)c1sc2nc(-c3ccncc3)ccc2c1N | inactive |
| O=C(CCn1cccc1)N1CCc2ccccc21 | inconclusive: 22.4 µM [inhibitor, single point] |
| C=C1c2c(Cl)ccc(O)c2C(O)=C2C(=O)[C@]3(O)C(O)=C(C(N)=O)C(=O)[C@@H](N(C)C)[C@@H]3[C@@H](O)C12 (stereo partly specified) | active: 35.5 µM |
| Cc1ccc(S(=O)(=O)NN2C(=O)/C(=C/c3ccccn3)SC2=S)cc1 | inactive |
| COc1ccc(CCN2CC(C(=O)NCCc3ccc(C)cc3)CC2=O)cc1OC (stereo unspecified) | inconclusive: 89.1 µM [inhibitor, partial curve, poor fit] |
| CCCCCCn1c(C)nc2c(c1=O)c1nc3ccccc3nc1n2/N=C/c1ccco1 | inconclusive: 11.2 µM [inhibitor, full curve, poor fit] |
| NC(=O)N/N=C/c1ccc([N+](=O)[O-])o1 | inactive |
| CC(C)/C=C1\CC/C(=C\c2ccc(N(C)C)cc2)C1=O | inactive |
| O=C1CCCC(O)=C1N=Nc1ccc2ncsc2c1 | inconclusive: 12.6 µM [inhibitor, full curve, poor fit] |
| Cc1ccc(OCC(=O)N/N=C/c2ccc([N+](=O)[O-])o2)cc1 | inactive |
| Cc1ccc(-c2cc(C(=O)N3CCN(c4ccc(F)cc4)CC3)c3ccccc3n2)o1 | inconclusive: 25.1 µM [inhibitor, partial curve, poor fit] |
| COc1cccc2[nH]c(C(=O)NC(C)c3ccccc3)cc12 (stereo unspecified) | inconclusive: 89.1 µM [inhibitor, partial curve, poor fit] |
| COc1cccc(OCc2nc3ccccc3n2CCOc2ccccc2)c1 | inconclusive: 79.4 µM [inhibitor, partial curve, poor fit] |
| CC(=O)Nc1cccc(-c2nn[nH]n2)c1 | inconclusive: 17.8 µM [inhibitor, full curve] |
| CCOC(=O)C1CCCN(CC(=O)Nc2c(C(=O)OC)[nH]c3ccc(Br)cc23)C1 (stereo unspecified) | inconclusive: 50.1 µM [inhibitor, partial curve, poor fit] |
| COC(=O)c1c(NC(=O)CCCOc2ccc(C)cc2)sc2c1C(C(=O)OC)CC2 (stereo unspecified) | inactive |
| COc1cccc(CNCCO)c1OCc1ccc(Cl)cc1 | inactive |
| CCS(=O)(=O)C1=NN2C(=N)/C(=C\c3ccc(OC(=O)c4ccco4)c(OC)c3)C(=O)N=C2S1 | active: 79.4 µM |
| CCOC(=O)N1CCc2c(sc3c2c(=O)n(Cc2ccccc2)c(=O)n3Cc2c(F)cccc2Cl)C1 | inactive |
| CC(=O)Cn1nnc2sc(-c3ccccc3)cc2c1=O | inconclusive: 50.1 µM [inhibitor, partial curve] |

| Structure (SMILES) | Potency |
| --- | --- |
| O=C(O)c1ccc(N=NN2CCCCCC2)cc1 | inactive |
| NC(=O)COc1cc2oc(=O)c3c(c2cc1Cl)CCCC3 | inconclusive: 17.8 µM [inhibitor, partial curve, poor fit] |
| CN(C)c1ccc2c(c1)C(=NO)c1ccccc1-2 | inconclusive: 31.6 µM [inhibitor, partial curve, poor fit] |
| CCc1ccc(/C=C/C(=O)c2cc(Br)ccc(=O)c2O)cc1 | inconclusive: 39.8 µM [inhibitor, single point] |
| Cc1nc(SCC(=O)NCc2ccco2)c2c3c(sc2n1)CCCC3 | inconclusive: 35.5 µM [inhibitor, single point] |
| CC(C)CC(NC(=O)c1ccccc1)C(=O)N/N=C/c1ccco1 (stereo unspecified) | active: 14.1 µM |
| CC(C)c1ccc(CNc2nc(-c3ccco3)nn2S(=O)(=O)c2ccc3ccccc3c2)cc1 | inactive |
| O=C(CSc1nc(-c2ccccc2)cs1)NC(=O)NCc1ccco1 | inactive |
| O=C(CCCCCn1c(SCc2ccncc2)nc2ccccc2c1=O)NCc1ccco1 | active: 79.4 µM |
| COc1ccc(C2NC(=O)CS2)cc1 (stereo unspecified) | inconclusive: 89.1 µM [inhibitor, single point] |
| CC(Oc1ccc2c(c1)oc(=O)c1ccccc12)C(=O)NC(Cc1c[nH]c2ccc(O)cc12)C(=O)O (stereo unspecified) | inconclusive: 31.6 µM [inhibitor, partial curve] |
| O=C(O)c1cccc(NS(=O)(=O)c2ccc(-c3ccc(S(=O)(=O)Nc4cccc(C(=O)O)c4)cc3)cc2)c1 | inconclusive: 44.7 µM [inhibitor, partial curve, poor fit] |
| Cc1cccc2c(N=Nc3ccc(S(=O)(=O)Nc4cccc(Cl)c4)cc3[N+](=O)[O-])c(O)[nH]c12 | inconclusive: 79.4 µM [inhibitor, partial curve] |
| CC(=O)CSc1nnc(-c2ccncc2)n1C | inconclusive: 4.47 µM [inhibitor, full curve, poor fit] |
| O=c1oc2ccccc2cc1-c1csc(Nc2nc3c(F)cccc3s2)n1 | inconclusive: 10 µM [inhibitor, partial curve, poor fit] |
| COc1ccc(/C=C2\SC(=O)N(CCc3nnc(N)s3)C2=O)cc1 | active: 44.7 µM |
| Cc1ccc2c(Cl)c(C)c(N3CCOCC3)nc2n1 | inactive |
| CCOC(=O)C1CCN(c2ncnc3c2nnn3C)CC1 | inactive |
| CC(C)CC(=O)N1CCC(N(CCc2ccccc2)Cc2ccccc2)CC1 | inconclusive: 89.1 µM [inhibitor, partial curve, poor fit] |
| COc1ccc(OCC(=O)N/N=C(\C)CC(=O)Nc2ccc(NC(C)=O)cc2)cc1 | inconclusive: 1.26 µM [inhibitor, full curve, poor fit] |
| COc1cc2c(cc1OC)C(COc1ccc(F)cc1)N(C(=O)Cc1ccc(F)cc1)CC2 (stereo unspecified) | inconclusive: 89.1 µM [inhibitor, partial curve, poor fit] |
| Cc1ccc(NC(=O)CSc2nnc(CNC(=O)c3ccco3)n2C)cc1C | inactive |

| Structure (SMILES) | Potency |
| --- | --- |
| Cc1ccccc1S(=O)(=O)N1[C@@H](c2ccc(Br)cc2)C(C(=O)O)=CC[C@H]1c1ccc(Cl)cc1 | inconclusive: 89.1 µM [inhibitor, single point] |
| Cn1c(SCC(=O)NNC(=O)c2ccc(Cl)cc2)nnc1-c1cccnc1 | inconclusive: 89.1 µM [inhibitor, partial curve, poor fit] |
| COc1ccc(OC)c(NC(=O)Cc2coc3ccc4ccccc4c23)c1 | inconclusive: 50.1 µM [inhibitor, partial curve, poor fit] |
| COc1ccc(S(=O)(=O)N2CCC(n3c(C(F)(F)F)nc4cccnc43)CC2)cc1OC | inactive |
| COc1cccc(N2CCN(C(=O)c3ccc(-c4ccccc4)cc3)CC2)c1 | inconclusive: 14.1 µM [inhibitor, full curve, poor fit] |
| CCCCCCOC(=O)C(C#N)c1nc2ccccc2nc1N1CCN(C)CC1 (stereo unspecified) | inconclusive: 15.8 µM [inhibitor, full curve, poor fit] |
| CC(C)[C@@H](COc1ccccc1)N1CCN(Cc2ccccc2)CCC1=O | inconclusive: 100 µM [inhibitor, partial curve, poor fit] |
| COc1cc(C(c2c(C(=O)O)[nH]c3ccccc23)c2c(C(=O)O)[nH]c3ccccc23)ccc1OCc1ccccc1 | active: 50.1 µM |
| O=C(CSc1nnc(-c2cccnc2)s1)Nc1cccc(C(=O)O)c1 | inconclusive: 14.1 µM [inhibitor, partial curve, poor fit] |
| COc1ccc2cc(-c3csc(-c4cccnc4)n3)ccc2c1 | inconclusive: 8.91 µM [inhibitor, full curve, poor fit] |
| CCOc1ccc2nc(SCC(=O)NC(=O)NCc3ccco3)[nH]c2c1 | inconclusive: 12.6 µM [inhibitor, partial curve] |
| COCCSc1nnc(NC(=O)Cc2ccc(OC)c(OC)c2)s1 | inactive |
| COc1ccc(O)c(/C=N/NC(=O)c2c(C)nnn2-c2nonc2N)c1 | inconclusive: 25.1 µM [inhibitor, full curve] |
| CCOc1ccc(C2=NC(c3cccs3)=Nc3ccc(C(C)C)cc3N2)cc1 | inconclusive: 0.891 µM [inhibitor, partial curve, poor fit] |
| COc1ccc2cc3cc(C(=O)NCc4ccc5c(c4)OCO5)oc3nc2c1 | inconclusive: 11.2 µM [inhibitor, full curve, poor fit] |
| O=C(NCc1cccs1)c1nc2c(nnn2Cc2ccccc2Cl)c(=O)[nH]1 | inconclusive: 28.2 µM [inhibitor, partial curve, poor fit] |
| Cc1ccoc1C(=O)NCc1occc1C(=O)O | active: 6.31 µM |
| COc1ccc(-c2nn(C)c(=O)c3ccccc23)cc1NC(=O)COc1ccc(C)cc1 | inconclusive: 14.1 µM [inhibitor, partial curve, poor fit] |
| CC(C)COC(=O)c1ccc2c(c1O)C(=O)c1ccccc1C2=O | inconclusive: 50.1 µM [inhibitor, partial curve] |
| CC1=NN(c2nc(-c3ccc(Cl)cc3)cs2)C(=O)C1 | active: 44.7 µM |
| Cc1oc2c(cc(NS(=O)(=O)c3ccc4c5c(cccc35)C(=O)N4)c3ccccc32)c1C(=O)OC(C)C | inconclusive: 20 µM [inhibitor, partial curve] |
| COc1cc(/C(C)=N/NC(=O)c2nnn(-c3nonc3N)c2-c2cccs2)ccc1O | inconclusive: 28.2 µM [inhibitor, partial curve, poor fit] |
